Experimental data reported in the supplement of paper PMC8821664.
Structures can show the parent of a compound that is named as a salt. This is one part of the list. Most values come without repeats; read them as rough.

These compounds were tested on Beas-2B AQP5-HiBiT reporter cells (assay: AQP5-HiBiT luminescence relative to vehicle (ratio to vehicle); higher = higher AQP5-HiBiT protein abundance). Conditions: 10 µM; 18 h.
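Further: monoclonal Beas-2B line stably carrying CMV promoter-driven AQP5-HiBiT, 5,000 cells per well in 384-well plates, lytic HiBiT plus LgBiT NanoLuc luminescence, FDA-approved drug library screen.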

Row | SMILES | AQP5-HiBiT luminescence
1 | CN(C)CCC=C1c2ccccc2CCc2ccccc21 [Amitriptyline hydrochloride] | 1.33
2 | COc1cc2nccc(Oc3ccc(NC(=O)C4(C(=O)Nc5ccc(F)cc5)CC4)cc3)c2cc1OC | 0.417
3 | Cn1c(=O)c2c(ncn2CC(O)CO)n(C)c1=O (stereo not drawn) [Diprophylline] | 0.953
4 | CC[C@H](C)C(=O)O[C@H]1C[C@H](O)C=C2C=C[C@H](C)[C@H](CC[C@@H](O)C[C@@H](O)CC(=O)O)[C@H]21 [Pravastatin sodium] | 0.587
5 | O=c1ccn([C@@H]2O[C@H](CO)[C@@H](O)[C@H]2O)c(=O)[nH]1 [Uridine] | 1.07
6 | CC(C)(C)c1nc(-c2cccc(NS(=O)(=O)c3c(F)cccc3F)c2F)c(-c2ccnc(N)n2)s1 | 0.435
7 | CN1CCC(=C2c3ccccc3C=Cc3ccccc32)CC1 [Cyproheptadine hydrochloride] | 1.09
8 | N#CCC(C1CCCC1)n1cc(-c2ncnc3[nH]ccc23)cn1 (stereo not drawn) | 0.559
9 | CCN[C@H]1C[C@H](C)S(=O)(=O)c2sc(S(N)(=O)=O)cc21 [Dorzolamide hydrochloride] | 1.03
10 | O=C1c2ccccc2C(=O)C1c1ccccc1 [Phenylindione] | 0.939
11 | CC/C(=C(\c1ccccc1)c1ccc(OCCN(C)C)cc1)c1ccccc1 [Tamoxifen citrate] | 0.834
12 | N#CC[C@H](C1CCCC1)n1cc(-c2ncnc3[nH]ccc23)cn1 | 0.286
13 | O=C(O)COCCN1CCN(C(c2ccccc2)c2ccc(Cl)cc2)CC1 (stereo not drawn) [Cetirizine 2hydrochloride] | 1.36
